In all, about 44,000 compounds went through this assay and about 340 (0.77%) were called active. Not shown: some 5% with an inconclusive outcome. Calls come from the whole dose curve; as a rule, active = well fitted inhibition curve with a large enough effect; inconclusive = small, poorly fitted or top-dose-only effect; inactive = flat fitted curve, though single readings scatter. The list shows a part of the results.
assay: Acumen qHTS Assay for Inhibitors of the mTORC1 Signaling Pathway in MEF (Tsc2-/-, p53-/-) Cells: Sytravon; conditions: phospho-rpS6 immunofluorescence/PI, 24 h; series mostly up to 38.3 µM; activity change, negative = inhibition: at the top concentration;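 note: plate controls were DMSO for no effect and rapamycin for full effect; nearly all actives have a fitted effect of over 50% in size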
Outline: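 Tsc2-/-, p53-/- mouse embryonic fibroblasts (empty-vector line) exposed to compound 24 hrs at 37 C, fixed, immunostained for phospho-rpS6 and counterstained with propidium iodide. Acumen laser scanning gives % positive cells from Alexa 488/PI ratio, thresholded using 7.5 nM rapamycin; PI count gives viability.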

Activity change, negative = inhibition, inactive:
CC(=O)Nc1ccc(C)cc1-c1nc2ccccc2n(CC(=O)c2ccc(C)c(C)c2)c1=O 2.33%
CN1CCN(c2nc3c(S(=O)(=O)c4ccc(Cl)cc4)nnn3c3ccsc23)CC1 3.49%
COc1ccc(S(=O)(=O)n2nc(C)c(S(=O)(=O)N3CCCCCC3)c2C)cc1C 5.01%
O=C(NCCc1csc(-c2ccc(C(F)(F)F)cc2)n1)C(=O)Nc1ccc(F)c(Cl)c1 -1.24%
CCOC(=O)c1c(N)n(-c2ccc(CC)cc2)c2nc3ccccc3nc12 -15.7%
O=C(CN1C(=O)CSc2ccc(S(=O)(=O)N3CCOCC3)cc21)NCCCN1CCCCC1 11.8%
Cc1ccc(C)c(NC(=O)Cn2c(SCC(=O)NCc3ccccc3)nc3ccccc32)c1 12.1%
Cc1ccc(N(CC(=O)N2CCN(c3ccccc3)CC2)S(=O)(=O)c2c(C)noc2C)cc1 -9.38%
Cc1nc(-c2ccc(F)cc2)sc1CCNC(=O)c1cccs1 -4.04%
CC(=O)N1CCOc2cc(S(=O)(=O)NCc3ccccc3Cl)c(Cl)cc21 -4.42%
CCc1ccc(NC(=O)Cn2c(=O)n(-c3ccccc3C)c(=O)c3c2c2cc(OC)ccc2n3C)cc1 1.95%
COc1ccc(NC(=O)CSc2nc3ccccc3nc2N2CCCCC2)cc1 -0.512%
CCOC(=O)c1ccccc1NC(=O)N1CCC(CN2CCOCC2)CC1 -1.61%
CCOc1ccc(NC(=O)Cn2nc3c(cc2=O)CC(C)CC3)cc1 (stereo unspecified) -3.61%
CCOC(=O)c1[nH]c2c(c1Cc1ccccc1)C(=O)CC(c1ccccc1)C2 (stereo unspecified) 1.16%
CCN1CCN(C(c2ccccc2Cl)c2sc3nc(-c4ccco4)nn3c2O)CC1 (stereo unspecified) -0.615%
CCOc1ccc(N(CC(=O)Nc2ccc(OC)cc2)S(=O)(=O)c2ccc(Cl)cc2)cc1 1.81%
Cc1ccc(-c2noc(-c3nnn(CC(=O)Nc4ccc(C)c(Cl)c4)c3N)n2)cc1 -0.705%
CC(C)Oc1ccc(C(=O)NCC(c2ccc(N(C)C)cc2)N2CCc3ccccc32)cc1 (stereo unspecified) 0%
Cc1ccc2c(C)c(C(=O)N(Cc3ccc(N(C)C)cc3)Cc3ccco3)oc2c1C 5.46%
O=C(CCSCCc1ccccn1)Nc1ccc(Cl)cc1 0.449%
CCN(c1ccccc1)S(=O)(=O)c1nnc(NC(=O)C2CCCCC2)s1 -2.83%
COc1ccc2c(c1)c(N1CCCC1=O)c(C(=O)Nc1cc(C)c(Cl)cc1OC)n2C -0.157%
CCn1c(=O)c2sccc2n2c(CCC(=O)Nc3ccc(F)cc3)nnc12 -14.2%
Cc1ccc2c(c1)cc1c(=O)n(Cc3ccccc3Cl)nc(C)n12 2.29%
COc1ccc(-c2onc(C)c2C)cc1S(=O)(=O)NCCc1ccccc1 0.43%
Oc1c(C(c2ccccc2)N2CCCC2)sc2nc(-c3ccco3)nn12 (stereo unspecified) -13.5%
CCOC(=O)Cc1ccc(NC(=O)NC(C)c2c(-n3cccc3)sc(C)c2C)cc1 (stereo unspecified) -0.356%
CCOC(=O)c1c(C)[nH]c(CCC(=O)NCc2cc(OC)c(OC)c(OC)c2)c1C 5.29%
COc1cc(-n2c(=O)c3ccccc3n(Cc3cccc(Cl)c3)c2=O)cc(OC)c1OC 5.45%
COc1ccc(CCN2C(=O)N(c3cccc(OC)c3)C(=O)C2CC(=O)Nc2ccccc2)cc1 (stereo unspecified) -4.34%
Cc1cc2oc(=O)c(CC(=O)O)c(C)c2c2occ(-c3ccccc3)c12 7.55%
Cc1ccc(C)c(Cn2c(=O)n(-c3ccccc3)c(=O)c3c4c(sc32)CCCC4)c1 3.24%
CCNC(=O)CC1C(=O)N(c2ccc(C)cc2)C(=O)N1CCOC (stereo unspecified) -9.27%
COc1ccc(CNC(=O)CN2C(=O)CCn3nc(-c4cn(C)c5ccccc45)cc32)cc1 -3.25%
O=C(c1ccc2c(c1)N(Cc1cccc(Cl)c1)C(=O)c1ccccc1S2=O)N1CCC(Cc2ccccc2)CC1 (stereo unspecified) -3.41%
O=C(c1cccc([N+](=O)[O-])c1)N1CCN(c2ccc(Nc3ccccc3)nn2)CC1 -8.64%
CCOC(=O)c1c(S(=O)(=O)N2CCC(C(=O)Nc3ccc(C)c(Cl)c3)CC2)c(C)n(C)c1C 2.16%
CCn1nc(C)c2c(-c3ccccc3)cc(=O)n(C(C)C(=O)NCCc3ccc(Cl)cc3)c21 (stereo unspecified) -25.4%
O=S(=O)(c1ccc(-c2cnc(C3CC3)o2)cc1)N1CCN(c2ccc(F)cc2)CC1 -22.2%
CCOc1ccc(NC(=O)CCCn2c(C)c3cnn(-c4ccccc4)c(=O)c3c2C)cc1 -4.58%
COc1ccc(OC)c(NC(=O)CSC2=Nc3ccccc3C3=NC(CC(=O)NCCc4ccccc4)C(=O)N23)c1 (stereo unspecified) 0.751%
CCOc1cccc(CNCCCSc2nnnn2C)c1 0.939%
COc1ccc(-c2cc(C(F)(F)F)n3nc(C(=O)Nc4cc(C)ccc4C)cc3n2)cc1 3.37%
Cc1ccc2c(c1)c1c3n2CCN(C(=O)c2ccc(C(F)(F)F)cc2)C3CCC1 (stereo unspecified) 4.32%
CC1=C(C(=O)OCc2ccc(C)cc2)C(c2cccc(F)c2F)CC(=O)N1 (stereo unspecified) -3.13%
CCOC(=O)c1sc2ccccc2c1S(=O)(=O)N1CCN(c2cc(C)ccc2C)CC1 -16.3%
COc1ccc(OCC(=O)Nc2ccc3nn(-c4ccc(OC)cc4)nc3c2)cc1 -6.98%
COc1ccc(CCNC(=O)c2cc3c(=O)oc4ccc(C)cc4c3s2)cc1OC -3.48%
CCNC(=O)c1cc2n(n1)CCCN(Cc1ccc(C)cc1)C2=O 3.19%
O=C(C1CCN(c2ncnc3c2nc2n3CCCCC2)CC1)N1CCN(c2ccc(Cl)cc2)CC1 2.07%
Cc1nn(C(=O)c2cccc(F)c2)c(C)c1S(=O)(=O)N1CCOCC1 -16.4%
Cc1ccc(NC(=O)c2c(NC(=O)c3ccccc3Cl)sc3c2CCC3)cc1 -1.63%
COc1ccc(Nc2cc(C(=O)NC3CCCC3)c3ccccc3n2)cc1 0.0743%
COc1ccc(C2C=C(c3ccc(Br)cc3)Nc3nnnn32)c(OC)c1 (stereo unspecified) -10.3%
COc1ccccc1CNc1nc2c(S(=O)(=O)c3ccccc3)nnn2c2ccc(Cl)cc12 -9.53%
O=C(CCSCc1ccc(Cl)cc1)NCc1ccc(F)cc1Cl 11.8%
CS(=O)(=O)N1CCc2cc(C(=O)N3CCN(c4ccccc4F)CC3)ccc21 0.533%
O=C(CSc1nccn1Cc1ccc(F)cc1)NCc1ccc(F)cc1 -16.7%
CN1CCN(C(=O)Cn2ncc3c4ccccc4n(Cc4ccc(Cl)cc4)c3c2=O)CC1 0.728%
Cc1cc(C)c(NC(=O)c2c(C)nn(-c3ccc(F)cc3)c2-n2cccc2)c(C)c1 -8.44%

Source: PubChem BioAssay AID493208 (National Center for Advancing Translational Sciences (NCATS), 2011)
